This is an account of results in the RNAGym collection of RNA variant scans (doi:10.7554/elife.90254).

Read counts are not given, so values of variants with three or more changes are uncertain.

Sequences and labels used below:
B1: LINE1-full (parent)
chain: UACGUAGGUGGUUUUCCCCUGAUAGUGCUAAGGGGGCCUGGAAGUUUGGACUGGGCAGAGCUCAACACAGCGUGGCAAAGUGGCUGUGGCUAGACUGCCUCUCUGGAUUCCUCGUCACUCAGCAGGGCAUCUCUGAGAGAAAUGCC

The variants in this series derive from B1. Nature of the series: self-cleavage, relative activity (ratio to wild type); higher = more cleavage; in vitro, sequencing; the parent is a self-cleaving ribozyme.
On to UACGUAGGUGGUUUUCCCCUGAUAGUGCUAAGGGGGCCUGGAAGUUUGGACUGGGCAGGGCUCAACACAGCGUGGCAAAGUGGCUGUGGCUAGACUGCCCCUCUGGAUUCCUCGUCACUCAGCAGGGCAUCUCUGAGAGAGAUGCC, for which the self-cleavage amounted to 0.13.
For the variant UACGUAGGUGGUUUUCCCCUGAUAGUGCUAAGGGGGCCUGGAAGUUUGGACUGGGCAGGGCCCAACACAGCGUGGCAAAGUGGCUGUGGCUAGACUGCCUCUCUGGAUUCCUCGUCACUCAGCAGGGCAUCUCUGAGAGAAGUGCC, the self-cleavage came out at 0.
To UACGUAGGUGGUUUUCCCCUGAUAGUGCUAAGGGGGCCUGGAAGUUUGGACUGGGCAGGGCUCAACACAGCGCGGCAAAGUGGCUGUGGCUAGACUGCCUCUCUGGAUUCCUCUUCUCUCAGCAGGGCAUCUCUGAGAGAAAUGCC belongs 0.09; to UACGUAGGUGGUUUUCCCCUGAUAGUGCUAAGGGGGCCUGGAAGUUUGGACUGGGCAGGGCUCAACACAGCGUGGCAAAGUGGCUGUGGCUAGACUGCCUCUCUGGAUUCCUCGUCACUCAGCAGGGCACCCCUGAGAGAAAUGCC, 0.12; to UACGUAGGUGGUUUUCCCCUGAUAGUGCUAAGGGGGCCUGGAAGUUUGGACUGGGCAGGUCUCAACACAGCGAGGCAAAGUGGCUGUGGCUAGACUGCCUCUCUGGAUUCCUCGUCACUCAGCAGGGCAUCUCUGAGAGAAAUGCC, 0.03.
Under UACGUAGGUGGUUUUCCCCUGAUAGUGCUAAGGGGGCCUGGAAGUUUGGACUGGGCAGGGCUCAACACAGCGUGGCAAAGUGGCUGUGGCUAGACUGCCUCUCUGGAUUCCUCGUCACUCAGCGGGGCACCUCUGAGAGAAAUGCC stands 0.21.
To UACGUAGGUGGUUUUCCCCUGAUAGUGCUAAGGGGGCCUGGAAGUUUGGACUGGGCAGGGCUCAACACAGCGUGGCAAAGUGGCUGUGGCUAGACCGCCUCCCUGGAUUCCUCGUCACUCAGCAGGGCAUCUCUGAGAGAAAUGCC belongs 0.24; to UACGUAGGUGGUUUUCCCCUGAUAGUGCUAAGGGGGCCUGGAAGUUUGGACUGGGCAGGGCUCAACACAGCGUGGCAAAGUGGCUGUGGCUAGACUGCCUCUCUGGAUUCCUCGCCACUCAGCAGGGCGUCUCUGAGAGAAAUGCC, 0.
Turning to UACGUAGGUGGUUUUCCCCUGAUAGUGCUAAGGGGGCCUGGAAGUUUGGACUGGGCAGGGCCCAACACAGCGUGGCAAAGUGGCUGUGGCUAGACUGCCUUUCUGGAUUCCUCGUCACUCAGCAGGGCAUCUCUGAGAGAAAUGCC, the self-cleavage stood at 0.
As to UACGUAGGUGGUUUUCCCCUGAUAGUGCUAAGGGGGCCUGGAAGUUUGGACUGGGCAGGGCUCAACACAGCGUGGCAAAGUGGCUGUGGCUAGACUGCCUCUCUGGAUUCCUCGUCACUCGGCAGGGAAUCUCUGAGAGAAAUGCC, the self-cleavage is 0.09.
On to UACGUAGGUGGUUUUCCCCUGAUAGUGCUAAGGGGGCCUGGAAGUUUGGACUGGGCAGGGCUCAACACAGCGUGGCAAAGUGGCUGUGGCUAGACUGACUCUCUGGAUUCCUCGUCACUCAGCAGGGCAUCUCUGGGAGAAAUGCC, for which the self-cleavage is 0.05.
As to UACGUAGGUGGUUUUCCCCUGAUAGUGCUAAGGGGGCCUGGAAGUUUGGACUGGGCAGGGCUCAACACAGCGUGGCAAAGUAGCUGUGGCUAGACUGCCUCUCUGGUUUCCUCGUCACUCAGCAGGGCAUCUCUGAGAGAAAUGCC, the self-cleavage was 0.01.
As for UACGUAGGUGGUUUUCCCCUGAUAGUGCUAAGGGGGCCUGGAAGUUUGGACUGGGCAGGGCUCAACACAGCGUGGCAAAGUGGCUGUGGCUAGACUGCCUCUCUGGAUUCCUCGUCACUCAGCAGGGCAUCUCUGAGAGUAGUGCC, the self-cleavage was 0.15.
For the variant UACGUAGGUGGUUUUCCCCUGAUAGUGCUAAGGGGGCCUGGAAGUUUGGACUGGGCAGGGCUCAACACAGCGAGGCAUAGUGGCUGUGGCUAGACUGCCUCACUGGAUUCCUCGUCACUCAGCAGGGCAUCUCUGAGAGAAAUGCC, the self-cleavage came to 0.09.
Consider UACGUAGGUGGUUUUCCCCUGAUAGUGCUAAGGGGGCCUGGAAGUUUGGACUGGGCAGGGCUCAACACAGCGUGACGAAGUGGCUGUGGCUAGACUGCCUCUCUGGAUUCCUCGUCACUCAGCAGGGCAUCUCUGAGAGAAAUGCC, for which the self-cleavage was 0.02.
Take UACGUAGGUGGUUUUCCCCUGAUAGUGCUAAGGGGGCCUGGAAGUUUGGACUGGGCAGGGCUCAACACAGCGUGGCAAAGUGGCUGUGGCUAGACUCCAUCUCUGGAUUCCUCGUCACUCAGCAGGGCAUCUCUGAGGGAAAUGCC: the self-cleavage is 0.06.
Turning to UACGUAGGUGGUUUUCCCCUGAUAGUGCUAAGGGGGCCUGGAAGUUUGGACUGGGCAGGGCUCAACACAGCGUGGCAAAGUGGCUGUGGCUAGACUGCCUCUCUGGAUUCCUCGUCACUCAACAGGGCAUCUUUGAGAGAAAUGCC, the self-cleavage turned out to be 0.1.
Consider UACGUAGGUGGUUUUCCCCUGAUAGUGCUAAGGGGGCCUGGAAGUUUGGACUGGGCAGUGCUCAACACGGCGUGGCUAAGUGGCUGUGGCUAGACUGCCUCUCUGGAUUCCUCGUCACUCAGCAGGGCAUCUCUGAAGGAAAUGCC, for which the self-cleavage was 0.37.
As for UACGUAGGUGGUUUUCCCCUGAUAGUGCUAAGGGGGCCUGGAAGUUUGGACUGGGCAGGGCUCAACACAGCGUGUCAAAGUGGCUGUGGCUAGACUGCCUCUCUGGAUUCCUCGACACUCAGCAGGGCAUCUCUGAGAGAAAUGCC, the self-cleavage was 0.05.
For UACGUAGGUGGUUUUCCCCUGAUAGUGCUAAGGGGGCCUGGAAGUUUGGACUGGGCAGGGCCCAACACAGCGUGGCAAAGUGGCUGUGGCUAGACCGCCUCUCUGGAUUCCUCGUCACUCAGCAGGGCAUCUCUGAGAGAAAUGCC, the self-cleavage was 0.
For the variant UACGUAGGUGGUUUUCCCCUGAUAGUGCUAAGGGGGCCUGGAAGUUUGGACUGGGCAGGGCUCAACACAGCGUGGCAAAGUGGCUGUGGCUAGACUGCCUCUCUGGACUCCUCGUCACUCAGCAGGGCAUCACUGAGAGAAGUUCC, the self-cleavage worked out at 0.61.
On to UACGUAGGUGGUUUUCCCCUGAUAGUGCUAAGGGGGCCUGGAAGUUUGGACUGGGCAGGGCUCAACACAGCGUGGCAAAGUGGCUGUGGCUAGACUGCCUCUCUGGACUCCUCGCCACUCAGCAGGGCAUCUCUGAGAGAAAUGCC, for which the self-cleavage was found to be 0.
Consider UACGUAGGUGGUUUUCCCCUGAUAGUGCUAAGGGGGCCUGGAAGUUUGGACUGGGCAGUGCUCUACACAGCGUGGCAAAGUGGCUGUGGCUAGACUGCCUCUCUGGAUCCCUCGUCACUCAGCAGGGCAUCUCUGAGAGAAAUGCC, for which the self-cleavage worked out at 0.57.
As for UACGUAGGUGGUUUUCCCCUGAUAGUGCUAAGGGGGCCUGGAAGUUUGGACUGGGCAGGGCUCAACACAGCGUGGCAAAGUGGCUGUGGCUAGACUGCCUCUCUGGAUUCAUCGCCACUCAGCAGGGCAUCUCUGAGAGAAAUGCC, the self-cleavage turned out to be 0.19.
For the variant UACGUAGGUGGUUUUCCCCUGAUAGUGCUAAGGGGGCCUGGAAGUUUGGACUGGGCAGGGCCCAACACAGCGCGGCAAAGUGGCUGUGGCUAGACUGCCUCUCUGGAUUCCUCGUCACUCAGCAGGGCAUCUCUGAGAGAAAUGCC, the self-cleavage was determined as 0.
Turning to UACGUAGGUGGUUUUCCCCUGAUAGUGCUAAGGGGGCCUGGAAGUUUGGACUGGGCAGGGCUCAACACAGCGAGGCAAAGUGGCUGCGGCUAGACUGCCUCUCUGGAUUCCUCGUCACUCAGCAGGGCGUCUCUGAGAGAAAUGCC, the self-cleavage was found to be 0.
Turning to UACGUAGGUGGUUUUCCCCUGAUAGUGCUAAGGGGGCCUGGAAGUUUGGACUGGGCAGGGCUCAACACAGCGUGGCAAAGUGGCAGUGGCUAGACUGCCUCUCUGGAUUCCUCGCCACUCAGCAGGGCAUCUCUGAGAGAAAUGCC, the self-cleavage was found to be 0.07.
As to UACGUAGGUGGUUUUCCCCUGAUAGUGCUAAGGGGGCCUGGAAGUUUGGACUGGGCAGGGCUUAACACAGCGUGGCAAAGUGGCUGUAGCUAGACUGCCUCUCUGGAUUCCUCGUCACUCAGCAGGGCUUCUCUGAGAGAAAUGCC, the self-cleavage amounted to 0.03.
Turning to UACGUAGGUGGUUUUCCCCUGAUAGUGCUAAGGGGGCCUGGAAGUUUGGACUGGGCAGGGCUCAACACAGCGUGGCAAAGUGGCUGUGGCUAGACUGCCUCUCUGGGUUCCUCGUCACUCAGUAGGGCAUCUCUGAGAGAAAUGCC, the self-cleavage was found to be 0.08.
As for UACGUAGGUGGUUUUCCCCUGAUAGUGCUAAGGGGGCCUGGAAGUUUGGACUGGGCAGUGCUCAACACAGCGUGGCUAAGUGGCUGUGGCUAGACUGCCUCUCUGUAUUCCUCGUCACUCAGCAGGGCAUCUCUGAGAGAAAAGCC, the self-cleavage is 0.49.
As for UACGUAGGUGGUUUUCCCCUGAUAGUGCUAAGGGGGCCUGGAAGUUUGGACUGGGCAGGGCUCAACACAGCGUGGCAAAGUGGUUGUGGCUAGACUGCCUCUCUGGGUUCCUCGUCACUCUGCAGGGCAUCUCUGAGAGAAAUGCC, the self-cleavage is 0.05.
Take UACGUAGGUGGUUUUCCCCUGAUAGUGCUAAGGGGGCCUGGAAGUUUGGACUGGGCAGGGCUCAACACAGCGAGGCAAGGUGGCUGUGACUAGACUGCCUCUCUGGAUUCCUCGUCACUCAGCAGGGUAUCUCUGAGAGAAAUGCC: the self-cleavage was found to be 0.04.
Under UACGUAGGUGGUUUUCCCCUGAUAGUGCUAAGGGGGCCUGGAAGUUUGGACUGGGCAGGGAUCAACACAGCGUGGCAAAGUGGCUGAGGCAAGACUGCCUCACUGGAUUCCUCGUCACUCAGCAGGGCAUCUCUGAGAGAAAUGCC stands 0.09; under UACGUAGGUGGUUUUCCCCUGAUAGUGCUAAGGGGGCCUGGAAGUUUGGACUGGGCAGGGCUCAACACAGCGUGGCAAAGUGGCUGUAGCUAGACUGCCUCCCUGGAUUCCUCGUCACUCAGCAGGGCAUCUCUGAGAGAAAUGCC, 0; under UACGUAGGUGGUUUUCCCCUGAUAGUGCUAAGGGGGCCUGGAAGUUUGGACUGGGCAGGGCUCAACACAGCGUGGCAAAGUGGCUGUGGCUAGACUGCCUCUCCGGAUUCCUCGUCACUCAGCAGGGCAUCUCUGAGAGAAGUGCC, 0.
UACGUAGGUGGUUUUCCCCUGAUAGUGCUAAGGGGGCCUGGAAGUUUGGACUGGGCAGGGCUCAACACAGCGUGGCAAAGUGGCUGUGGCCAGACUGCCUCUCUGGAUUCCUCGUCACUCAGCAGGGCAUCCCUGAGAGAAAUGCC: the self-cleavage was found to be 0.
In the case of UACGUAGGUGGUUUUCCCCUGAUAGUGCUAAGGGGGCCUGGAAGUUUGGACUGGGCAGUGCUCGACACAGCGUGGCAAAGUGGCUGUGGCUAGACUGCCUCUCUGGAUUCCUCGUCACUCAGUAGGGCAUCUCUGAGAGUAAUGCC, the self-cleavage was 0.09.
As for UACGUAGGUGGUUUUCCCCUGAUAGUGCUAAGGGGGCCUGGAAGUUUGGACUGGGCAGGGCUCAACACAGCGUGGCAAAGUGGCUGUGGCUAGACUGCCUCUCUGGAUACCUCGUCACUCAGCAGGGCAUCUCUGGGAGAAAAGCC, the self-cleavage stood at 0.
On to UACGUAGGUGGUUUUCCCCUGAUAGUGCUAAGGGGGCCUGGAAGUUUGGACUGGGCAGGGCUCAACACAGCGUGGCAAAGUGGCUGUGGCUAGACUGCCUCUCUGGAUACCUCGUCACUCAGCAGGGCAUCUCUGAGAGAAGUGCC, for which the self-cleavage was found to be 0.16.
